Laboratory results from ChEMBL document CHEMBL4888484, “Replenishing the malaria drug discovery pipeline: Screening and hit evaluation of the MMV Hit Generation Library 1 (HGL1) against asexual blood stage Plasmodium falciparum ,using a nano luciferase reporter read-out” (2022).
Among all 150,000 compounds or so, about 540 (0.36%) showed an effect of 50% or more. Some of the results follow.

What follows are molecules tested on Plasmodium falciparum (assay: Primary screen in NF54 nanoGlo assay, in single point, at 2uM, 72h; a lower Z score goes with more inhibition). Settings: timepoint 72 hour.
Assay type: functional, Erythrocyte

Structure (SMILES) | % Inhibition | Z score
Cc1ccsc1C(=O)N(C)C1CCN(Cc2ccncc2)CC1 | -5% | 0.61
Cc1ccc(S(=O)(=O)N2C[C@@H](C)CC2(C)C)o1 | 7% | -1.22
CC(C)[C@H](Cn1cncn1)NC(=O)c1cncc(F)c1 | -11% | 2.15
CCOc1ccccc1CNC(C)(C)CO | -4% | 0.51
Cc1ccc2nc(NCc3ccccc3Cl)c(-n3nc(C)cc3C)nc2c1 | -2% | 0.24
Cc1ocnc1C(=O)NCC1(c2cccc(F)c2F)CCCC1 | -6% | 0.76
O=C(Nc1cccc(F)c1)c1nnc(COCC(=O)N2CCCCC2)s1 | -7% | 1.01
COc1cc(CCNS(=O)(=O)CCO[C@H]2CCOC2)ccc1C | -2% | 0.34
Cc1nc(-c2ccccc2C)c(N)c(N2CCCC2)n1 | -2% | 0.33
CN(Cc1ccccc1)C(=O)c1ccc2c(c1)N(CC(=O)N1CCCC1)C(=O)CO2 | -13% | 1.68
CCN(Cc1nonc1C)C(=O)c1cc(C)nc2onc(C)c12 | -14% | 1.64
Cc1occc1C(=O)Nc1ccc(Cc2nnc3n2CCC3)cc1 | -8% | 0.76
O=C1c2cccc3cccc(c23)C(=O)N1c1nc2c(ccc3ccccc32)s1 | 3% | -0.42
CC1CCN(C(=O)CCNC(=O)c2ccc(N3CC(=O)NC3=O)cc2)CC1 | -14% | 1.75
O=C1C[C@@H](C(=O)Nc2ccc3c(c2)OCO3)n2ncc(-c3ccc(Cl)cc3)c2N1 | -9% | 0.99
Cc1cnc(C2CCC2)n1CC1CCN(C(=O)c2ccc(C#N)cc2)CC1 | -5% | 0.7
C[C@H]1CS(=O)(=O)N(c2ccc(C(=O)NCc3ccccc3F)c(Cl)c2)C1=O | -10% | 1.3
COc1ncccc1N(C)C(=O)c1ccc(-c2ccccc2F)s1 | -18% | 1.79
Cc1ncccc1CNCc1nn(C)c2ccccc12 | -4% | 0.62
CC(C)N1CCN(CCCN2CCCC3(CCCCO3)C2C#N)CC1 (stereo unspecified) | 1% | -0.19
CC(C)(C)OC(=O)N1CC(O)CC1(C)C(=O)NCCc1ccco1 (stereo unspecified) | -8% | 1.66
Cc1ccc2c(c1)CCN(Cc1nncs1)C2 | -2% | 0.2

Structure (SMILES) | % Inhibition | Z score
C[C@H](NS(=O)(=O)c1cccc(F)c1F)C(N)=O | -7% | 0.62
Cc1ccnc(NC(=O)[C@@]2(C)CC2(Cl)Cl)c1 | 2% | -0.4
Cc1ccc(S(=O)(=O)N2CCc3[nH]cnc3[C@H]2c2cccnc2)cc1F | -6% | 1.05
NC(=O)CCCc1nc(-c2c[nH]c3ccccc23)nn1C1CCCCC1 | -3% | 0.44
CCC(=O)N(Cc1ccc(-c2ccc(Cl)cc2)o1)[C@H]1CCS(=O)(=O)C1 | 63% | -8.22
O=C(c1cncc(N2CCC3(CCCO3)CC2)n1)N1CCOCC1 | -4% | 0.83
O=C(COC(=O)c1ccc(N2C(=O)c3ccccc3C2=O)cc1)NCc1ccc2c(c1)OCO2 | -4% | 0.59
C[C@H](N)C(=O)Nc1ccnn1C1CCCCC1 | -8% | 1.45
C=CCN1CC[C@@]2(CCC1=O)CN(Cc1cccc3nonc13)CCN2C | -11% | 2.07
COc1ccc(S(=O)(=O)N2CCc3cc4ccccc4nc32)cc1OC | -10% | 1.11
COc1ncccc1-c1ccc2c(c1)OC[C@@H](N1CCCC1)[C@@H]2O | 4% | -0.59
O=C1CCN(C(=O)c2coc3c2C(=O)NCCC3)CCCCCN1 | -3% | 0.58
NC(=O)C1CCN(Cc2cccc(OCc3ccc(F)cc3)c2)CC1 | -6% | 0.94
CC(C)S(=O)(=O)N(C)C(=O)c1cccc(C(F)(F)F)c1 | -7% | 1.01
CCOc1ccccc1C(=O)[C@@H]1[C@@H]2CCCN2[C@]2(C(=O)Nc3ccc(C)cc32)[C@@]12C(=O)Nc1ccccc12 | 6% | -0.76
Cn1ccc([C@H]2CCCN(C(=O)Nc3ccc(=O)n(C)n3)C2)n1 | -3% | 0.58
Cc1nc(CNC[C@H](O)c2ccc(Cl)c(F)c2)cs1 | 10% | -1.19
CO[C@H]1CN(C2CCN(C(=O)CCc3c[nH]c4ccccc34)CC2)C12CCOCC2 | -2% | 0.27
O=C1CN(C(=O)Cn2c(-c3ccccc3)cc3ccccc32)c2ccccc2N1 | 23% | -2.66
CN1Cc2ccccc2C[C@H]1C(=O)NCc1c[nH]nc1-c1ccc(Cl)cc1 | -12% | 1.11
Cc1nc(N2CCCC2)ccc1NC(=O)N1CCCC[C@H](C)C1 | -10% | 1.43
